Measured values as given in US12122821B2, “Regulation of glucose metabolism using anti-CGRP antibodies” (H. LUNDBECK A/S, priority 2013, dated 2024).

What was measured:
HFD rats = assay: Fasting blood glucose, plasma insulin, C-peptide and HOMA-IR in HFD rats (Example 2); format: in vivo, rat; settings: vs HFD vehicle
Description: After 6 weeks of HFD rats were randomized to treatment groups according to their glucose intolerance (AUC calculation during an oral glucose tolerance test (OGTT)) and their HOMA-IR (insulin resistance index).
Body weight and food consumption were measured 3 times per week until 10 days of treatment. HOMA-IR was measured on day 10 and 15. A 2-step clamp (5 mU/kg/min and then 15 mU/kg/min insulin) was performed on day 15 or 16. Glucose Turnover (GTO) was assessed using ^3H-glucose tracer infusion during the clamp procedure.
Ab14 (10, 30, 100 mg/kg) and the vehicle were weekly administered via i.v. route (via the caudal vein, under isoflurane anaesthesia), in the morning, on day 1 and day 8 of treatment.
Before the start of the treatment (the day of OGTT) and on day 10 of treatment, all rats were fasted from 08:00 am. At 01:30 pm, blood was collected from the from the tip tail (40 μL on EDTA). Blood glucose (using glucometers) and plasma insulin (ELISA method) were measured.
Plasma insulin and C peptide levels were measured just before the infusion starts (˜T-30 min.), at the end of the steady state of step 1 (T2 h) and step 2 (T3.5 h). For that, blood collection was performed from the tip of the tail (˜100 μL, on EDTA).

[1] = tested on: Zucker diabetic fatty (ZDF) rat; assay: Oral glucose tolerance test on day 26 in ZDF rats (Example 3); format: in vivo; settings: for decrease of insulin secretion (relative to T-60) at T30 / reduction in blood glucose AUC (OGTT): vs vehicle ZDF; for plasma insulin and C-peptide levels 15 and 30 minutes after the glucose load: vs vehicle; for reduction in blood glucose AUC (OGTT): non significant
Description: The oral glucose tolerance test (OGTT) was performed as follows. On day 25, rats were fasted at ˜6:00 pm and an oral glucose tolerance test was performed the day after (on day 26). At ˜8:00 am (T-60) a blood collection (110 μL, EDTA) was performed for biochemical parameters measurements. One hour after (˜09:00 am), an oral glucose bolus (1.5 g/kg) was administered (T0). Blood glucose was measured (glucometer or colorimetric method in case of high glycaemia) on T-60, T0, T15, T30, T60, T90, T120, and T180 minutes. Area under the curve (AUC) was calculated based on the blood glucose values measured at T0. Plasma insulin and C-peptide were measured (ELISA method) on T-60, T15 (·40 μL of blood, EDTA), and T30 minutes (·40 μL of blood, EDTA).

Normal rats = assay: Hyperinsulinemic-euglycemic clamp, whole body glucose fluxes in normal rats (Example 1); format: in vivo, rat; settings: Ab14 100 mg/kg i.v., vs vehicle
Description: To assess the effect on whole body insulin sensitivity, a clamp procedure was performed using 0.3 U/kg/h insulin and ^3H-glucose. Rats were fasted for 6 hours before 180 minutes of perfusion. Steady state was reached after 140 minutes of infusion and the means of glucose infusion rate (GIR), whole body glucose turn over (GTO), hepatic glucose production (HGP), glycolysis, and glycogen synthesis were calculated from 140 min. to 180 min. A bolus of 14-C-2-deoxyglucose was administered 1 hour before the end of the clamp to measure tissue specific glucose utilization.
The hyperinsulinemic-euglycemic clamp was performed using ^3H-glucose as a tracer and 0.3 U/kg/h insulin infusion from 02:00 pm (T0) to 05:00 pm (T+3 h). A glucose solution was infused in parallel and the infusion rate was adjusted to reach the steady state (˜100+/−10 mg/dL). Blood glucose was measured from the tip of the tail using glucometers every 10 minutes. Blood was collected (10 μL) from the tip of the tail during the last hour (steady state) and the following parameters were assessed: Glucose infusion rate; Whole body glucose utilization rate; Hepatic glucose production rate; Whole body glycogen and glycolytic rates.
Whole body Glucose fluxes.

[2] = tested on: Zucker diabetic fatty (ZDF) rat; assay: Pancreas insulin and proinsulin content in ZDF rats (Example 3); format: in vivo; settings: day 28, AB14 60 mg/kg, metformin 200 mg/kg/day, alone or combined, vs vehicle
Description: After 2 hours of food restriction (from 8:00 am to 10:00 am) 80 rats from the study were anesthetized on day 28 with isoflurane. Blood was collected (˜3000 μL from abdominal vein, on K2-EDTA) for the determination of AB14 plasma concentrations. Plasma (3 aliquots of ˜200 μL) was kept at −80° C. until testing. The pancreas tissue was then excised. Rats were euthanized by incision of the abdominal vein and aorta.
Each pancreas was divided into 2 parts (longitudinal cut).
Each pancreas sample was homogenized in an acid buffer, and insulin and proinsulin content were measured using ELISA kits in the following groups: […]

[3] = tested on: Zucker diabetic fatty (ZDF) rat; assay: Fructosamine and HbA1c in ZDF rats (Example 3); format: in vivo; settings: vs vehicle ZDF; for decrease of HbA1c: 28 days
Description: For the groups treated with AB14, the antibody was administered once weekly via the caudal vein (i.v., 5 mL/kg) on days 1, 8, 15, and 22 at two different doses 20 mg/kg/week (groups 3 and 7) or 60 mg/kg/week (groups 4 and 8). All other groups were treated once weekly with vehicle 1 (i.v., 5 mL/kg). The intravenous treatments were performed in the morning on day 1, 8, 15, and 22 while under isoflurane anaesthesia. The volume of administration was individually adapted according to the most recent body weight.
All other groups were treated daily with vehicle 2 (p.o., 5 mL/kg) for 28 days. The most recent body weight was used to calculate the average volume of administration in each group.
Fasting blood glucose (glucometers) was measured on days 0, 12, 19, and 26. Fasting plasma insulin, peptide-C (ELISA method), free fatty acids, triglycerides, total cholesterol (colorimetric method), and HDL-cholesterol (phosphotungstate precipitation, colorimetric method) were measured on day 0, and prior to dosing on days 12, 19, and day 26. Non HDL-cholesterol was calculated as total cholesterol—HDL-cholesterol. Fructosamine was measured on days 0, 19 and 28. HbA1c (DCA 2000) was measured on days 0 and 28.

[4] = day 10, Ab14 10, 30, 100 mg/kg/week, metformin 200 mg/kg/day
[5] = day 26, AB14 20 mg/kg alone or + metformin
[6] = day 26, AB14 60 mg/kg alone or + metformin

B1: Ab14: humanized anti-CGRP antibody consisting of the light and heavy polypeptide chains of SEQ ID NOs 132 and 134 (protein)
light: QVLTQSPSSLSASVGDRVTINCQASQNVYNNNYLAWYQQKPGKVPKQLIYSTSTLASGVPSRFSGSGSGTDFTLTISSLQPEDVATYYCLGSYDCSRGDCFVFGGGTKVEIKRTVAAPSVFIFPPSDEQLKSGTASVVCLLNNFYPREAKVQWKVDNALQSGNSQESVTEQDSKDSTYSLSSTLTLSKADYEKHKVYACEVTHQGLSSPVTKSFNRGEC
heavy: EVQLVESGGGLVQPGGSLRLSCAVSGIGLSSYYMQWVRQAPGKGLEWVGVIGSDGKTYYATWAKGRFTISRDNSKTTVYLQMNSLRAEDTAVYFCTRGDIWGQGTLVTVSSASTKGPSVFPLAPSSKSTSGGTAALGCLVKDYFPEPVTVSWNSGALTSGVHTFPAVLQSSGLYSLSSVVTVPSSSLGTQTYICNVNHKPSNTKVDARV[here human IgG1 Fc with changes without letters]
With B1 the “decrease of HOMA-IR” value (HFD rats; [4]) was “no effect”, the “decrease of fasting plasma insulin” value (HFD rats; [4]) was “no effect” and the fasting blood glucose (HFD rats; [4]) was “no effect”. For the same molecule, the “decrease of HOMA-IR” value (HFD rats; day 15, Ab14 10 mg/kg) was 33%, the “decrease of plasma C-peptide level” value (HFD rats; day 15, Ab14 10 mg/kg) was 30% and the “decrease of fasting plasma insulin” value (HFD rats; day 15, Ab14 10 mg/kg, ns) was 26%. For the same molecule, the “decrease of HOMA-IR” value (HFD rats; day 15, Ab14 30 mg/kg) was 17%, the “decrease of plasma C-peptide level” value (HFD rats; day 15, Ab14 30 mg/kg) was 23% and the “decrease of fasting plasma insulin” value (HFD rats; day 15, Ab14 30 mg/kg, ns) was 16%. The “decrease of HOMA-IR” value (HFD rats; day 15, Ab14 100 mg/kg) was 38%, the “decrease of plasma C-peptide level” value (HFD rats; day 15, Ab14 100 mg/kg) was 29% and the fasting blood glucose (HFD rats; day 15, Ab14 100 mg/kg) was “significant decreasing effect”. For the same molecule, the “decrease of fasting plasma insulin” value (HFD rats; day 15, Ab14 100 mg/kg, ns) was 18%, the “decrease of insulin secretion (relative to T-60) at T30” value ([1]; OGTT day 26, AB14 20 mg/kg alone or + metformin) was “no effect” and the “decrease of insulin secretion (relative to T-60) at T30” value ([1]; OGTT day 26, AB14 60 mg/kg alone or + metformin, trend) was 19%. The “plasma insulin and C-peptide levels 15 and 30 minutes after the glucose load” value [1, 5] was “similar”, the “reduction in blood glucose AUC (OGTT)” value [1, 5] was 7% and the “plasma insulin and C-peptide levels 15 and 30 minutes after the glucose load” value [1, 6] was “similar”. For the same molecule, the “reduction in blood glucose AUC (OGTT)” value [1, 6] was 11%, the “GIR evolution during clamp” value (Normal rats; metformin 500 mg/kg p.o.) was “trend to increase” and the “increase of glycolysis rate” value (Normal rats; clamp 0.3 U/kg/h insulin, 140-180 min, metformin 500 mg/kg p.o.) was “did not affect”. For the same molecule, the “increase of glycogen synthesis rate” value (Normal rats; clamp 0.3 U/kg/h insulin, 140-180 min, NS) was 23%, the pancreas proinsulin levels [2] was “completely prevented reductions” and the pancreatic insulin levels [2] was “slightly increased”. The “decrease of HbA1c” value ([3]; AB14 20 mg/kg alone or + metformin 200 mg/kg/day) was “no effect”, the “decrease of HbA1c” value ([3]; AB14 60 mg/kg alone or + metformin 200 mg/kg/day) was “no effect” and the fructosamine levels ([3]; AB14 20 mg/kg) was “no effect”. For the same molecule, the fructosamine levels ([3]; AB14 60 mg/kg) was “no effect”.
